# From the supplement of paper PMC8728848
# This is one part of the list.
# Tests used:
# Assay in all cases: glycan array binding signal (z-score within array); higher = stronger binding
# Conditions in all cases: glycan notation: IUPAC condensed, linker removed
# [1] = target: GlcNAc(a1-4)Gal(b1-4)GlcNAc(b1-3)Gal(b1-4)GlcNAc(b1-3)Gal(b1-4)GlcNAc
# In short: (§1)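 The binding signal is a Z-score computed within each array. Data were drawn from 3228 arrays in the Consortium for Functional Glycomics database, restricted to those with a known protein sequence. Scores were averaged over arrays of the same protein sequence at different concentrations or buffers, and over linkers, and negative values can be taken as non-binding.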
# [2] = target: GlcNAc(a1-4)Gal(b1-4)GlcNAc(b1-3)Gal(b1-4)[Fuc(a1-3)]GlcNAc(b1-3)Gal(b1-4)[Fuc(a1-3)]GlcNAc
# In short: as §1
# [3] = target: GlcNAc(a1-6)Gal(b1-4)GlcNAc
# In short: as §1
# [4] = target: GlcNAc(b1-2)Gal(b1-3)GalNAc
# In short: as §1
# [5] = target: GlcNAc(b1-2)Man(a1-3)[GlcNAc(b1-2)Man(a1-6)]Man(b1-4)GlcNAc(b1-4)GlcNAc
# In short: as §1
# [6] = target: GlcNAc(b1-2)Man(a1-3)[GlcNAc(b1-2)Man(a1-6)]Man(b1-4)GlcNAc(b1-4)[Fuc(a1-6)]GlcNAc
# In short: as §1
# [7] = target: GlcNAc(b1-2)Man(a1-3)[GlcNAc(b1-4)][GlcNAc(b1-2)Man(a1-6)]Man(b1-4)GlcNAc(b1-4)GlcNAc
# In short: as §1
# [8] = target: GlcNAc(b1-2)Man(a1-3)[GlcNAc(b1-4)][GlcNAc(b1-2)Man(a1-6)]Man(b1-4)GlcNAc(b1-4)[Fuc(a1-6)]GlcNAc
# In short: as §1
# [9] = target: GlcNAc(b1-2)[GlcNAc(b1-4)]Man(a1-3)[GlcNAc(b1-2)Man(a1-6)]Man(b1-4)GlcNAc(b1-4)GlcNAc
# In short: as §1
# [10] = target: GlcNAc(b1-2)[GlcNAc(b1-4)]Man(a1-3)[GlcNAc(b1-4)][GlcNAc(b1-2)Man(a1-6)]Man(b1-4)GlcNAc(b1-4)GlcNAc
# In short: as §1
# [11] = target: GlcNAc(b1-2)[GlcNAc(b1-4)]Man(a1-3)[GlcNAc(b1-4)][GlcNAc(b1-2)[GlcNAc(b1-6)]Man(a1-6)]Man(b1-4)GlcNAc(b1-4)GlcNAc
# In short: as §1
# [12] = target: GlcNAc(b1-2)[GlcNAc(b1-4)]Man(a1-3)[GlcNAc(b1-4)][GlcNAc(b1-2)[GlcNAc(b1-6)]Man(a1-6)]Man(b1-4)GlcNAc(b1-4)[Fuc(a1-6)]GlcNAc
# In short: as §1
# [13] = target: GlcNAc(b1-2)[GlcNAc(b1-6)]Man(a1-6)[GlcNAc(b1-2)Man(a1-3)]Man(b1-4)GlcNAc(b1-4)GlcNAc
# In short: as §1
# [14] = target: GlcNAc(b1-2)[GlcNAc(b1-6)]Man(a1-6)[GlcNAc(b1-2)Man(a1-3)]Man(b1-4)GlcNAc(b1-4)[Fuc(a1-6)]GlcNAc
# In short: as §1
# [15] = target: GlcNAc(b1-2)[GlcNAc(b1-6)]Man(a1-6)[GlcNAc(b1-4)][GlcNAc(b1-2)Man(a1-3)]Man(b1-4)GlcNAc(b1-4)GlcNAc
# In short: as §1
# [16] = target: GlcNAc(b1-3)Fuc
# In short: as §1
# [17] = target: GlcNAc(b1-3)Gal
# In short: as §1
# [18] = target: GlcNAc(b1-3)Gal(b1-3)GalNAc
# In short: as §1
# [19] = target: GlcNAc(b1-3)Gal(b1-4)Glc
# In short: as §1
binder,measurement,setting,value
GSL-I (Griffonia simplicifolia) (protein) FNLPNFWSDVKDNIIFQGDANTTAGTLQLCKTNQYGNPLQYRAGRALYSDPVQLWDNKTGSVASFYTEFTFFLKITGDGPADGLAFFLAPPDSDVKDAGAYLGLFNKSTATQPSKNQVVAVEFDTWKNTDFPEPSYRHIGINVNSIVSVATKRWEDSDIFSGKIATARISYDGSAKILTVVLSYPDGADYILSHSVDLSKNLPNPIRVGISASTGANQFLTVYVLSWRFSSALQSTSVNAAMGPEIIRTVV,glycan array binding signal (z-score),[1],-0.154
same,glycan array binding signal (z-score),[2],-0.146
same,glycan array binding signal (z-score),[3],-0.171
same,glycan array binding signal (z-score),[4],-0.228
same,glycan array binding signal (z-score),[5],-0.215
same,glycan array binding signal (z-score),[6],-0.156
same,glycan array binding signal (z-score),[7],-0.281
same,glycan array binding signal (z-score),[8],-0.193
same,glycan array binding signal (z-score),[9],-0.199
same,glycan array binding signal (z-score),[10],-0.236
same,glycan array binding signal (z-score),[11],-0.256
same,glycan array binding signal (z-score),[12],-0.225
same,glycan array binding signal (z-score),[13],-0.121
same,glycan array binding signal (z-score),[14],-0.27
same,glycan array binding signal (z-score),[15],-0.289
same,glycan array binding signal (z-score),[16],-0.172
same,glycan array binding signal (z-score),[17],-0.192
same,glycan array binding signal (z-score),[18],-0.209
same,glycan array binding signal (z-score),[19],-0.196
